The campaign covered roughly 150,000 compounds. About 540 (0.36%) showed an effect of 50% or more. This is one part of the list.

This experiment has as its system Plasmodium falciparum. Briefly: Primary screen in NF54 nanoGlo assay, in single point, at 2uM, 72h; a lower Z score goes with more inhibition. The class given is functional, Erythrocyte. The following applies: timepoint 72 hour.
Usually % Inhibition stands for the drop in the measured response relative to a control, in per cent. With `CN=C(NCC1(c2cccc(F)c2)CC1)N(C)Cc1cnn(C)c1`, the “% Inhibition” value is given as 3% and the Z score is reported as -0.39.
On the same counts, the results for `O=C(NCc1ccc(F)cc1F)[C@H]1C[C@@H](c2ccccc2)N2CCC[C@H]12` are 1% and -0.21.
On the same counts, the results for `CC1c2ccccc2CN1C(=O)C(C)n1nnnc1C(C)(C)C` (centres undefined) are 4% and -0.59.
For the compound `O=C(CN1CCN(S(=O)(=O)c2ccc(F)cc2)CC1)Nc1ccc2c(c1)OCCO2`, the “% Inhibition” value is listed as 1% and the Z score is -0.07.
Consider `CC1CCN(c2ccc(NC(=O)N3CCC[C@@H]3CO)cc2)C1` (some centres undefined), for which the “% Inhibition” value is given as -23% and the Z score stood at 2.11.
On the same counts, the results for `COc1ccccc1CCNC(=O)CC[C@@H](C)[C@H]1CC[C@H]2[C@@H]3[C@@H](O)C[C@@H]4C[C@H](O)CC[C@]4(C)[C@H]3CC[C@]12C` are 3% and -0.6.
As for `c1ccc2c(c1)CCC2NCC1CNc2ccnn2C1` (centres undefined), the “% Inhibition” value was found to be 0% and the Z score is reported as -0.1.
On the same counts, the results for `O=C(c1cn2cc(-c3ccc(Cl)cc3)ccc2n1)N1CCC(Cc2ccccc2)CC1` are -5% and 0.56.
On the same counts, the results for `Cc1nn(C)c2nc(NCCC[C@H]3CCOC3)sc12` are -20% and 2.03.
On the same counts, the results for `Cc1cc(OC2CN(C(=O)c3ccc(=O)n(C)n3)C2)cc(=O)n1C` are -13% and 1.48.
Consider `CC(C)Cn1ccnc1CNc1ncc(Br)cn1`, for which the “% Inhibition” value is recorded as -9% and the Z score is recorded as 1.01.
On the same counts, the results for `COc1ccc(-c2nc(COc3cc(C)c4c(C)nn(-c5ccccc5)c4n3)c(C)o2)c(OC)c1` are -8% and 0.78.
`O=C(NC1CC1)[C@H]1CCCN(C2CCN(C(=O)Nc3ccccc3)CC2)C1`: the “% Inhibition” value is -11% and the Z score worked out at 1.04.
On the same counts, the results for `O=C(c1ccc(C(F)(F)F)cc1)N1CC[C@H](n2cncn2)C1` are -4% and 0.39.
As to `O=C(c1ccoc1)N1CCC(c2nc(CCC(F)(F)F)no2)CC1`, the “% Inhibition” value is recorded as -7% and the Z score amounted to 0.83.
On the same counts, the results for `CC(C)N(CC(F)F)C(=O)NCc1ccco1` are -11% and 0.96.
On the same counts, the results for `O=C(c1cccc(-n2cncn2)n1)N1CC[C@@H]2CCC[C@@H]21` are -7% and 0.74.
On the same counts, the results for `O=S(=O)(Nc1cccc(O)c1)N1CCCC1` are 13% and -1.62.
In the case of `CN(C)C(=O)NCc1cc2n(n1)CCCN(Cc1cccc3ncccc13)C2`, the “% Inhibition” value is -11% and the Z score was 1.58.
On the same counts, the results for `Cc1cccc(CN2CC[C@H](Oc3cncc(Br)c3)C2)n1` are -7% and 1.41.
On the same counts, the results for `CCN(C(=O)C1=CCCCCC1)[C@H]1CC(=O)NC1=O` are -10% and 1.08.
On the same counts, the results for `CCc1cnc(CNC(=O)N(Cc2cc(F)ccc2F)C2CCCC2)s1` are 0% and 0.05.
Turning to `Cn1cccc(C(=O)N2CCCC[C@H](c3ccc(F)cc3)C2)c1=O`, the “% Inhibition” value is -12% and the Z score stood at 1.89.
On the same counts, the results for `C[C@H](c1noc(Cc2ccc(O)cc2)n1)C1CC1` are 1% and -0.21.
For the compound `CCc1cc(=O)c2cc(NS(=O)(=O)C[C@H]3CCCO3)ccc2[nH]1`, the “% Inhibition” value was -10% and the Z score came to 1.91.
On the same counts, the results for `COC(OC)C(=O)N1CCN(Cc2cnc3ccccc3c2)CC1` are -7% and 0.94.
On the same counts, the results for `CC(C)(C)c1cnc(CNC(=O)Nc2ccnn2C2CCCCC2)o1` are -6% and 0.96.
On the same counts, the results for `COc1ccc(/C=C/CN2CCCn3nc(CO)cc3C2)cc1` are 4% and -0.56.
As to `Cc1csc(Nc2cccc(NS(=O)(=O)c3ccc(F)c4ncccc34)c2)n1`, the “% Inhibition” value is -15% and the Z score worked out at 1.54.
On the same counts, the results for `CN1CCN(c2ncccc2CNC(=O)CN2C(=O)NC(=O)C2(C)C)CC1` are 6% and -0.74.
`CC(=O)Nc1cc(C)nc(C)c1OC(C)=O`: the “% Inhibition” value is listed as -19% and the Z score is on record as 2.42.
On the same counts, the results for `COc1cccc(CNCc2ccc(F)cc2)c1OC[C@@H](O)CN1CCOCC1` are -2% and 0.42.
`CC(C)Cc1nc(C#N)c(NC[C@@H](c2cccs2)N2CCCCC2)o1`: the “% Inhibition” value is given as -10% and the Z score was found to be 1.9.
Turning to `Cc1nc(-c2cc3c(s2)CCN(C(=O)[C@H](C)n2cccn2)C3)cs1`, the “% Inhibition” value was -7% and the Z score is 1.21.
On the same counts, the results for `Cc1nnc(-c2cc(C(C)C)n(-c3ccc(C(=O)NCC(C)(C)C)cc3)n2)o1` are -9% and 1.27.
On the same counts, the results for `CC1CCC2(CC1)OC[C@@H](C(=O)NCc1ccccc1)N2C(=O)c1ccc(Cl)c(Cl)c1` (some centres undefined) are -10% and 1.12.
On the same counts, the results for `O=C(Nc1ccccc1Br)[C@H]1CCCN(c2nc3cccnc3s2)C1` are -19% and 1.69.
`COc1ccc(C)cc1NC(=O)c1nn(-c2ccccc2)c2ccccc2c1=O`: the “% Inhibition” value is given as 26% and the Z score was -2.53.
On the same counts, the results for `O=C(CCc1nc2ccccc2c(=O)[nH]1)NC1CCCC1` are -1% and 0.11.
On the same counts, the results for `CC(=O)N1CCc2cc(Br)c(S(=O)(=O)CCC(=O)N3CCC(C)CC3)cc21` are -11% and 1.04.
On the same counts, the results for `COc1ncc(NC(=O)c2snnc2C)cn1` are -9% and 1.7.
For the compound `Cc1cc(COCC(=O)N2Cc3ccccc3CO2)no1`, the “% Inhibition” value was 3% and the Z score is recorded as -0.6.

These data come from ChEMBL document CHEMBL4888484, “Replenishing the malaria drug discovery pipeline: Screening and hit evaluation of the MMV Hit Generation Library 1 (HGL1) against asexual blood stage Plasmodium falciparum ,using a nano luciferase reporter read-out” (2022).
